In PubChem BioAssay (NCI) one finds GI50 and TGI data, which are given here for four compounds.

Among the test systems are IGROV1 ovarian; UACC-257 melanoma; LOX IMVI melanoma; SK-MEL-5 melanoma; HL-60(TB) leukemia; K-562 leukemia; SNB-75 CNS; KM20L2 colon; DLD-1 colon; SN12K1 renal; DMS 114 small cell lung; P388/ADR leukemia; HOP-18 NSCLC; XF 498 CNS; M19-MEL melanoma; DMS 273 small cell lung; SNB-78 CNS; P388 leukemia.
What all share (assay): NCI tumour cell line growth inhibition, 48 h

Each structure is given as a SMILES string.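 In this assay, cells in 96-well plates receive the compound at five concentrations for 48 hours. Endpoints are linearly interpolated between the surrounding concentrations. GI50: concentration for 50% inhibition of growth.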 The source holds more than one record for some entries. The other results are left out here. An entry can have further records. For some of these results: Records of one sample usually come from different ranges of test concentrations, not given here; some values may only mark the edge of a range. For some of these results: Values given together repeat one measurement (runs, samples, wells, individuals or studies). A tag in brackets gives the origin of a value. The letters are not those of the source and start again with each entry.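 TGI: total growth inhibition.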

For the compound `COc1nc(N)nc2c1ncn2C1OC(CO)C(O)C1O` (centres undefined), the GI50 in the assay on IGROV1 ovarian was 38.5 µM and > 5 mM; with UACC-257 melanoma it was 2.95 µM and > 5 mM.
`C=C(OC1C(C)=C2C(C1OC(=O)CCCCCCC)C(C)(OC(C)=O)CC(OC(=O)CCC)C1(O)C2OC(=O)C1(C)O)/C(C)=C/C` (centres undefined): the TGI with LOX IMVI melanoma is 3.04 nM and 583 nM; in the assay on SK-MEL-5 melanoma, 1.63 nM and 90 nM.
In the case of `Cc1sc2c(c1C)C(c1ccc(Cl)cc1)=N[C@@H](CC(=O)OC(C)(C)C)c1nnc(C)n1-2`, the TGI in the assay with HL-60(TB) leukemia was 5.15 µM [sample A, mean of 2 tests] and 485 nM [sample B, mean of 2 tests]; in the assay with SNB-75 CNS, 11.1 µM [sample A, mean of 2 tests] and 982 nM [sample B, mean of 2 tests]. In addition, the GI50 in the assay on K-562 leukemia is 741 nM [sample A, mean of 2 tests] and 57.3 nM [sample B, 1 test].
On to `CO[C@H](C(=O)[C@@H](O)[C@@H](C)O)[C@@H]1Cc2cc3cc(OC4CC(OC5CC(O)C(O)C(C)O5)C(O)C(C)O4)c(C)c(O)c3c(O)c2C(=O)[C@H]1OC1CC(OC2CC(OC3CC(C)(O)C(O)C(C)O3)C(O)C(C)O2)C(O)C(C)O1` (some centres undefined), for which the TGI in the assay on KM20L2 colon was > 1.25 mM [1 test] and 521 nM [mean of 4 tests] and 185 µM [mean of 8 tests]; in the assay with DLD-1 colon, > 1.25 mM [1 test] and 10.2 µM [mean of 4 tests] and 82.2 µM [mean of 9 tests]; in the assay with LOX IMVI melanoma, > 1.25 mM [1 test] and 36.2 µM [mean of 11 tests] and 340 nM [mean of 2 tests] and 0.22 nM [mean of 3 tests]; in the assay on SN12K1 renal, 16.9 µM, > 1.25 mM [1 test] and 0.599 nM, 211 µM [mean of 4 tests]; in the assay on DMS 114 small cell lung it was > 1.25 mM [1 test] and 66.8 nM [mean of 4 tests] and 278 nM [mean of 7 tests]; in the assay with P388/ADR leukemia it was > 1.25 mM [1 test] and 14.4 µM [mean of 4 tests] and 38.7 µM [mean of 7 tests]. Besides, the TGI was 0.991 nM, 22.1 nM, 259 µM with HOP-18 NSCLC; > 1.25 mM [1 test] and < 13.1 nM [mean of 3 tests] and < 125 nM [mean of 7 tests] in the assay with XF 498 CNS; > 1.25 mM [1 test] and 165 nM [mean of 4 tests] and 0.832 nM [mean of 5 tests] and 851 nM [mean of 9 tests] in the assay with M19-MEL melanoma; > 1.25 mM [1 test] and 240 nM [mean of 4 tests] and 0.158 nM [mean of 5 tests] and 276 nM [mean of 8 tests] with DMS 273 small cell lung; > 1.25 mM [1 test] and 38.8 µM [mean of 7 tests] in the assay with SNB-78 CNS; > 1.25 mM [1 test] and 209 nM [mean of 4 tests] and 6.27 µM [mean of 7 tests] with P388 leukemia.
